Experimental data published in publication PMC12136788.
The list shows a part of the results.

B1: chr17:3197573:3197574:+_ENSMUSG00000046201_ENSMUST00000076734|mus_mus|FALSE|FALSE (ssRNA)
RNA: GGGAGUUCUACAGUCCGACGAUCCCUCACAAGAUUCUCCCUCAUGUCCACAGGAGGUCUUCCAAAAUGAUCCCUAGCAUCUAAUGGAGGCCUUCCAGGGCCUUCUCUGGGAUCUAGACGUCGCCCAACCACAUCCCUAACAUCCAACAGAGGAUUGAGCAUCA
B2: chr12:53618122:53618123:+_ENSMUSG00000035133_ENSMUST00000110725|mus_mus|motif|central (ssRNA)
RNA: GGGAGUUCUACAGUCCGACGAUCUCUUGUUCCCUCUAAGUUGAUAUAUUCUUCAUAAUCAGGAUGAUUUUUUAAUUUAUUACGGACAGUUUUCCAAGUUGCAUGAUAAUCUCUCACAGUCUGUACAAGUUUUUCAAACUUGUCCAACAGAGGAUUGAGCAUCA
B3: chr19:8913615:8913616:-_ENSMUSG00000071658_ENSMUST00000096259|mus_hu|mus_mus_mus_hu_False|1_58 (ssRNA)
RNA: GGGAGUUCUACAGUCCGACGAUCAGGGUACCAAAACCUUCUGCCUGAAAUGGGUGCCCCACCCAGUAGGGAGUUGCAGCUAAAAAUAUCUGAUGCAGAAGCAGUGACUAUACGAAAGGAGGCCCCUGGGGAGGGCCCGAGAUCCAACAGAGGAUUGAGCAUCA
B4: chr12:39756943:39756944:-_ENSG00000139116_ENST00000544797|hu_mus|hu_hu_hu_mus_False|38_88 (ssRNA)
RNA: GGGAGUUCUACAGUCCGACGAUCGGUUUGGCUGUUACCCCCAAGGGAAUCCUGUAGGAGUCUUGUCAGCUUAGAGUCUCUGUAAGGGACAUGGGUGGCCCUCUUGCUCUUGUCCCCCAAGGCGCUGAUUACAUUCCCAAGAGCCAACAGAGGAUUGAGCAUCA
B5: 180426612_180426732_171_5pUTR_ENSMUSG00000038914_ENSMUST00000103055|mouse|control|control (ssRNA)
RNA: GGGAGUUCUACAGUCCGACGAUCACAUAAAAUUAUAGACCUGGGGCCAGGUCAAGCAGACGGCCAAGCCUCACCCCACUGUUGUCAGUCACAGUUCAUCAAUGAGAAGAUUCCGGAGCUUCGAACAACCAAAGGGACAGUGGGCAACAGAGGAUUGAGCAUCA
B6: chr1:213174215:213174216:-_ENSG00000174606_ENST00000366962|hu_hu|FALSE|FALSE (ssRNA)
RNA: GGGAGUUCUACAGUCCGACGAUCUGUCUUUUCUACUUUUGGUACCUGCUGUACCUCAUACACACAGUUCUGUGAGAUACCUAGGUUUGGGGGCCAAAUUGGAAUAGAUAAAAUUCUUUGUCCCCGUGAAGACUGUUCCUGGCCCAACAGAGGAUUGAGCAUCA
B7: chr12:82822756:82822757:-_ENSMUSG00000042724_ENSMUST00000035987|mus_hu|motif|central (ssRNA)
RNA: GGGAGUUCUACAGUCCGACGAUCGGCUGAGGAGAGGGAGCAGCAGACAGAUUUGGCUGAGUGACUCUGCAGGGUCACUCGGAAGGCAAGGAAGACUGUGGAGGGUGGGGGACAUGCAUGCACCCCUUCCUCCCCUACACAGCCCAACAGAGGAUUGAGCAUCA
B8: chr4:48472875:48472876:-_ENSMUSG00000028345_ENSMUST00000030030|mus_hu|FALSE|FALSE (ssRNA)
RNA: GGGAGUUCUACAGUCCGACGAUCACUAUUUAGCCUAGAGCCAUCUUCAAGGGUCUCUGUUACAAAUUUCCUUAUCAUUUCUAUCCAACUGCAAUCCUUCUGCAAAGUUGACGCAUUUGCCAGGGAGACCAUGAUAUCAGACAGCAACAGAGGAUUGAGCAUCA
B9: chr1:220275481:220275482:+_ENSG00000067704_ENST00000302637|hu_mus|FALSE|FALSE (ssRNA)
RNA: GGGAGUUCUACAGUCCGACGAUCAAACGCCGAUUUCUGCUUUUCAAUGGCUGCCUGAGCAAAUGAUCUGGCUUUCUCCCUGAUCUCCAUGGCUGAAAGACUCUGGGCAUCUACACCGAGCUCUGAUAACACUUUUGUUUCAAUCAACAGAGGAUUGAGCAUCA
B10: chr11:87793471:87793472:-_ENSMUSG00000020483_ENSMUST00000020775|mus_mus|mus_mus_mus_hu_False|28_88 (ssRNA)
RNA: GGGAGUUCUACAGUCCGACGAUCUGGACUUGAAAAUAAAAGAAUAAGCUAGAUUUCCCACCCCCCCACAUUGUCAACCCUACACGAGAGUUUUGAAGGCGACUCAUGAAUCAGCAGAGCUCAAACGGCAAUGACCACCCCACCCAACAGAGGAUUGAGCAUCA
B11: chr2:181324804:181324805:-_ENSMUSG00000000823_ENSMUST00000128553|mus_mus|FALSE|FALSE (ssRNA)
RNA: GGGAGUUCUACAGUCCGACGAUCGCCCCUUACCCCUUGGCACCGCUGAUAGUGGUACUUGAGCCCAUAGAUGCUGGGGAACUCUAGCCAGCACCCUGAGUUUGGACACUUCACCCUUGAGUGUGCCUUGAAUUCAUCUUUCCACAACAGAGGAUUGAGCAUCA
B12: chr7:141438946:141438947:+_ENSG00000106028_ENST00000265304|hu_mus|hu_hu_hu_mus_True|58_98 (ssRNA)
RNA: GGGAGUUCUACAGUCCGACGAUCGACGAAAUACCUGACAGGUCUUCCUUCGAAACAUGGCUUCUGUUUUUCUUACAGUCUAAUCUUUAGGCUUUUCCUAAAGGAAAGAAAGAAAAGAGAAAAAUGAUAAAUCAAGAAACUACACAACAGAGGAUUGAGCAUCA
B13: chr8:101932826:101932827:-_ENSG00000164924_ENST00000353245|hu_mus|FALSE|FALSE (ssRNA)
RNA: GGGAGUUCUACAGUCCGACGAUCAAUAUAGAAAUUCAAAUAGAAGUAACAUAAACCUGUCAUAAAUCGUAAACAAAAAAACUAUCUGUGGGACAGCAUGGAUGACAAAUGGUCUACUGUGUAAAUUUUAGAAUGAGGCAGACACAACAGAGGAUUGAGCAUCA
B14: chr4:76572280:76572281:-_ENSG00000138757_ENST00000395719|hu_hu|motif|central (ssRNA)
RNA: GGGAGUUCUACAGUCCGACGAUCCUUUAGCUCAUUUUCAUCAAUAUCAUGUGGCAAGUUACCAACAAAAAGUUGAUGACGGUCUGGAUAGCGAAUUAUUCUACGGUUGUCAGAGUCAUUCUGUUCCAUAUCUCCUCUGCCUGGCAACAGAGGAUUGAGCAUCA

molecular target: T1, UNK ZnF1-3 (human, UniProt Q9C0B0 31-174); experiment: nsRBNS (natural sequence RNA bind-n-seq); RBNS binding buffer (assumed for nsRBNS): 25 mM Tris pH 7.5, 150 mM KCl, 3 mM MgCl2, 0.01% Triton X-100, 500 ug/ml BSA, 20 U/ml SUPERase-In, 4 C; UNK is unkempt and MSI1 is Musashi-1; names of the RNAs are library labels; protein concentration not given here; high values mean tight binding
T1 sequence: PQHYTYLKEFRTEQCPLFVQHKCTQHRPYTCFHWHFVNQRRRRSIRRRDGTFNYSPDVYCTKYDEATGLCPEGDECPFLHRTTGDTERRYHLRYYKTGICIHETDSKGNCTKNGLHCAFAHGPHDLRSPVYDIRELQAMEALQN

Going from B1 to B2, the binding signal rises from 0.979 enrichment R to 1.12 enrichment R.

Compared with B3, B4 is lower in binding signal: 1.16 enrichment R for the first, 0.821 enrichment R for the second.

Going from B5 to B6, the binding signal falls from 1.13 enrichment R to 0.653 enrichment R.

Going from B7 to B8, the binding signal falls from 0.835 enrichment R to 0.819 enrichment R.

Compared with B9, B10 is higher in binding signal: 0.546 enrichment R for the first, 1.53 enrichment R for the second.

Going from B11 to B12, the binding signal falls from 0.672 enrichment R to 0.542 enrichment R.

Compared with B13, B14 is lower in binding signal: 2.05 enrichment R for the first, 0.805 enrichment R for the second.
